# In the supplement of paper PMC4967469:
# The IC50 comes from the fitted curve, where viability falls to half of the control; a limit (>, <) means that the fit lies beyond the doses tested. The AUC spans the tested range (256-fold, ending at the top dose) of the same fit; it is 1 without any effect and falls as sensitivity rises. For part of these data: Any top dose called inferred is not printed in the source and was worked back from the curve model. For part of these data: An entry number marks a drug with two screens in the source, which often give different values.
# How the values were obtained:
# Assay in all cases: Viability of human cancer cell lines after 72 h of drug (GDSC screen)
# Tamoxifen = compound: CC/C(=C(\c1ccccc1)c1ccc(OCCN(C)C)cc1)c1ccccc1 [Tamoxifen]; conditions: top dose 5 µM
# Description: (§1)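 Human cancer cell lines in 384-well plates, medium with 10% serum, drug for 72 h over a 256-fold dose range (nine 2-fold or five 4-fold steps up to the top dose). Adherent lines were fixed and stained with the nucleic acid dye Syto60, suspension lines read with resazurin; signal relative to control wells, capped at 0 and 100%. One two-parameter sigmoid per drug and line, fitted in a mixed model over all curves with the slope shared within a line.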
# HG-5-88-01 = compound: COc1cc(N2CCC(C(N)=O)CC2)ccc1Nc1nc(N)c(Cl)c(Nc2ccccc2S(=O)(=O)C(C)C)n1 [HG-5-88-01]; conditions: top dose 10 µM; top dose inferred
# Description: as §1
# NSC-87877 = compound: O=S(=O)(O)c1ccc2cc(N=Nc3cc(S(=O)(=O)O)c4cccnc4c3O)ccc2c1 [NSC-87877]; conditions: top dose 16 µM; top dose inferred
# Description: as §1
# Elesclomol = compound: CN(NC(=O)CC(=O)NN(C)C(=S)c1ccccc1)C(=S)c1ccccc1 [Elesclomol]; conditions: top dose 0.2 µM; top dose inferred
# Description: as §1
# BX-912 = compound: O=C(Nc1cccc(Nc2ncc(Br)c(NCCc3cnc[nH]3)n2)c1)N1CCCC1 [BX-912]; conditions: top dose 10.24 µM; top dose inferred
# Description: as §1
# VNLG/124 = compound: CCCC(=O)OCc1ccc(OC(=O)/C=C(C)/C=C/C=C(C)/C=C/C2=C(C)CCCC2(C)C)cc1 [VNLG/124]; conditions: top dose 5.12 µM; top dose inferred
# Description: as §1
# OSI-930 = compound: O=C(Nc1ccc(OC(F)(F)F)cc1)c1sccc1NCc1ccnc2ccccc12 [OSI-930]; conditions: top dose 10.24 µM
# Description: as §1
# Masitinib = compound: Cc1ccc(NC(=O)c2ccc(CN3CCN(C)CC3)cc2)cc1Nc1nc(-c2cccnc2)cs1 [Masitinib]; conditions: top dose 20 µM
# Description: as §1
# Bleomycin = compound: Cc1c(N)nc([C@H](CC(N)=O)NC[C@H](N)C(N)=O)nc1C(=O)N[C@H](C(=O)N[C@H](C)[C@@H](O)[C@H](C)C(=O)N[C@H](C(=O)NCCc1nc(-c2nc(C(=O)NCCC[S+](C)C)cs2)cs1)[C@@H](C)O)[C@@H](OC1OC(CO)C(O)C(O)C1OC1OC(CO)C(O)C(OC(N)=O)C1O)c1cnc[nH]1 [Bleomycin]
# Description: as §1
# LAQ824 = compound: O=C(/C=C/c1ccc(CN(CCO)CCc2c[nH]c3ccccc23)cc1)NO [LAQ824]; conditions: top dose 1.024 µM; top dose inferred
# Description: as §1
# [1] = top dose 50 µM, screen: GDSC drug entry 1378, top dose inferred
# [2] = top dose 64 µM, screen: GDSC drug entry 190
Cell Line,AUC (Tamoxifen),IC50 (Tamoxifen) [µM],AUC (HG-5-88-01),IC50 (HG-5-88-01) [µM],AUC (NSC-87877),IC50 (NSC-87877) [µM],AUC (Elesclomol),IC50 (Elesclomol) [µM],AUC (BX-912),IC50 (BX-912) [µM],AUC (VNLG/124),IC50 (VNLG/124) [µM],AUC (OSI-930),IC50 (OSI-930) [µM],AUC (Masitinib),IC50 (Masitinib) [µM],AUC (Bleomycin; [1]),IC50 (Bleomycin; [1]) [µM],AUC (Bleomycin; [2]),IC50 (Bleomycin; [2]) [µM],AUC (LAQ824),IC50 (LAQ824) [µM]
"SCC-4 (head and neck, adherent)",0.979,> 5,0.933,> 10,0.94,> 16,0.894,> 0.2,0.976,> 10.2,0.982,> 5.12,0.973,> 10.2,0.984,> 20,0.773,23.1,0.41,2.17,0.409,0.0342
"SF126 (glioma, adherent)",0.984,> 5,0.954,> 10,0.978,> 16,0.245,0.00219,0.913,> 10.2,0.986,> 5.12,0.983,> 10.2,0.889,> 20,0.25,0.568,0.478,3.47,0.542,0.084
"SH-4 (melanoma, adherent)",0.868,> 5,0.852,> 10,0.844,> 16,0.853,> 0.2,0.903,> 10.2,0.974,> 5.12,0.955,> 10.2,0.854,> 20,0.597,6.67,0.586,7.84,0.407,0.031
"SHP-77 (small cell lung carcinoma, semi-adherent)",0.991,> 5,0.964,> 10,0.991,> 16,0.954,> 0.2,0.981,> 10.2,0.992,> 5.12,0.961,> 10.2,0.903,> 20,0.88,42.3,0.937,> 64,0.56,0.0914
"SIMA (neuroblastoma, adherent)",0.984,> 5,0.909,> 10,0.971,> 16,0.617,0.0274,0.935,> 10.2,0.978,> 5.12,0.973,> 10.2,0.862,> 20,0.569,4.95,0.606,8.12,0.613,0.137
"SJRH30 (rhabdomyosarcoma, adherent)",0.978,> 5,0.705,2.42,0.983,> 16,0.365,0.00521,0.859,8.92,0.986,> 5.12,0.976,> 10.2,0.898,> 20,0.829,32.5,0.248,0.731,0.366,0.0269
